# Results reported in PMC12136788.
# The list shows a part of the results.
# B1: 40814524_40814644_2448_CDS_ENSG00000196588_ENST00000355630|human|control|control (ssRNA)
# RNA: GGGAGUUCUACAGUCCGACGAUCCUGGGGGGCGGGGACCGGCUCGGGCUCAGGCUGCAAGGCUUCCUGCUUCACCACCACGGACGGGGGCCCCGGGGCCACAGCACAAGGGUCUAUGUGGUUGGUGGCUGGGGCCGCCAGGCUCAACAGAGGAUUGAGCAUCA
# B2: chr3:104804989:104804990:-_ENSMUSG00000062127_ENSMUST00000098763|mus_mus|FALSE|FALSE (ssRNA)
# RNA: GGGAGUUCUACAGUCCGACGAUCAGCACAUCAUUAGAUUCUGCUGACCAGUAACAGCUUCUUUGAUAUGGUUAAUACCCAAAUUGUGAAUCAUGGAACUUUUACUUAGCGCACACACUCACAAUCUACUGCAAACUGAAAUACCAACAGAGGAUUGAGCAUCA
# B3: chrX:114868325:114868326:+_ENSG00000102024_ENST00000355899|hu_hu|FALSE|FALSE (ssRNA)
# RNA: GGGAGUUCUACAGUCCGACGAUCGGGUGUAAGUUUCUUCUUGUUGAUUGCUCUUUCAUCAAUGGUAUCAGGAACUGAAAGGUUAAUCAUUUUACAAAGCACAAUUCCAUCACCAACAGCUUUGAACAGGUCAUCGGUGUUAGGCAACAGAGGAUUGAGCAUCA
# B4: chr1:220276048:220276049:+_ENSG00000067704_ENST00000302637|hu_hu|hu_hu_hu_mus_True|1_28 (ssRNA)
# RNA: GGGAGUUCUACAGUCCGACGAUCGCAAAUUGCCUGGUUGGCGGGAAUUGUCCAAGGCUGGGUGGUCCAAACUAAAACGCUAACAGGGGAUGAGGCAUCUGUAAGAGAUGCCAAUUUCGGAGGAGGUCUCAGGAGGGGAAAUUUCAACAGAGGAUUGAGCAUCA
# B5: chr5:122939345:122939346:-_ENSMUSG00000029467_ENSMUST00000031423|mus_mus|motif|central (ssRNA)
# RNA: GGGAGUUCUACAGUCCGACGAUCCUUUCUGUCCUGUCGAUACACUUUGCCCAUUUCAGGCUCAUAUUCCUUAAGAGCUUCGGUUGCAUUUUCAGCAUUUCUUUCCUGCCACACACCCACGAUUGCAUUGGCUACCAAGAUAAGCAACAGAGGAUUGAGCAUCA
# B6: chr17:62500844:62500845:-_ENSG00000108654_ENST00000583239|hu_mus|FALSE|FALSE (ssRNA)
# RNA: GGGAGUUCUACAGUCCGACGAUCUUGAUAAAAAUUCUUCUCAAAUUUGGGCAGCUCAUCAAGAUUCCACUUCUUUUUAACUAGUUUCUCCCCAGGAUUUCCAAACUUCUUUCCAGAGAGGGGUCCUGUUCUACUCCCUCCAAACAACAGAGGAUUGAGCAUCA
# B7: chr9:14812383:14812384:-_ENSMUSG00000031934_ENSMUST00000164273|mus_mus|mus_mus_mus_hu_True|68_108 (ssRNA)
# RNA: GGGAGUUCUACAGUCCGACGAUCAUAGCUCAAGUAGAUACACGCUAACAGUAUAAUGAUGAGUGUCACCAGCCGGCAGCUAAUGUACUUGAUGAUUAAAUUAUUAGAAUUUUUCUUUGUCUUCAAGUACUGCUCCACAAUUGGCAACAGAGGAUUGAGCAUCA
# B8: chr7:118215863:118215864:-_ENSMUSG00000005610_ENSMUST00000162415|mus_hu|FALSE|FALSE (ssRNA)
# RNA: GGGAGUUCUACAGUCCGACGAUCUAUUGCAACAACUCAAGUAUUACUGAGCAAAGUGCAUUUCUACAGUAUUCAGUGUUGCUAUUCAGUUUUCUAACUUAAAACAGCCUAUGAUAACUGGCAGCAAAGAAGGUCCUUGCAAUACAACAGAGGAUUGAGCAUCA
# B9: 11281310_11281430_1695_3pUTR_ENSG00000154319_ENST00000284486|human|control|control (ssRNA)
# RNA: GGGAGUUCUACAGUCCGACGAUCCUGGGGCUGCGUCCCCAAGUGCCCAUUUGUCAUGCCUUUCGAUUUUCCCUUCCUAGUAGCUCCCUGUCAAUGUUGCUGAGUCAUGUACUUAGGGUGAAUUUGAGACAAUACUUAGAGGACCAACAGAGGAUUGAGCAUCA
# B10: chr12:48362563:48362564:+_ENSG00000134291_ENST00000256686|hu_hu|hu_hu_hu_mus_False|18_78 (ssRNA)
# RNA: GGGAGUUCUACAGUCCGACGAUCUCCGUCAAGCCCUUCGAUAGACCCUUGCGGGGGUGGUAAAAACCACUUUGUAUGGGGAAGGAAAAGAAACGCCAAAAACUUUCCAAAAAGCGGUUCAAAAAGCAGGCGGGAGGGGGAGGUCAACAGAGGAUUGAGCAUCA
# B11: 42873059_42873707_7040_CDS_ENSG00000105429_ENST00000334370|human|control|control (ssRNA)
# RNA: GGGAGUUCUACAGUCCGACGAUCCACAGGGCGGCACAGCCCUGUCAUGUUGUCCAUGGUAUAGCCGGUCUUGCAGCUGCACUCAUAGCCGUGGGGCUGGUCGUGGCAAUUCUGCGUCUCGUUGCAGUCGUGGUGCCCGUUUGCCAACAGAGGAUUGAGCAUCA
# B12: chr14:89307221:89307222:+_ENSG00000165533_ENST00000346301|hu_mus|hu_hu_hu_mus_False|28_88 (ssRNA)
# RNA: GGGAGUUCUACAGUCCGACGAUCUCCUGUUUGGUUAGUGCCAGGGAGUUUCAAAGAUGUGCCAGGGCGUGGGACCUGAGCAAUAGCAUUUUCAUCCAGGAUCAUUUCUGCAAUUCCUUCCUGGUCCACAUCAAUUUCAUCUAUCAACAGAGGAUUGAGCAUCA
# B13: chr6:36887377:36887378:+_ENSG00000198663_ENST00000480824|hu_hu|FALSE|FALSE (ssRNA)
# RNA: GGGAGUUCUACAGUCCGACGAUCUCUUCGGCACUGGAAGGGAGGGAUGAGCUGCAACAUGGCCUCACCGCUGCCAAUGAUAAAUAGGUCAGGCAUCUUAUGCAUCUUACUCCCCACAACAGGUUCUGGGUGAAGAAAGGAGCACAACAGAGGAUUGAGCAUCA
# B14: chr8:92086081:92086082:+_ENSG00000155100_ENST00000285420|hu_hu|FALSE|FALSE (ssRNA)
# RNA: GGGAGUUCUACAGUCCGACGAUCUAUCCGAGGUGGCUGAUUCUCAAGCACCAAGUUUGAAAUGUUAACAGCAACAGAAUCUAUCUUAUUCUCCUUAGUAGUCAGCUUCAAUUGCUCCAGUUCCUCUCUAUGUUUCUGUUCCAUCAACAGAGGAUUGAGCAUCA
# Biological target: T1, UNK ZnF1-3 (human, UniProt Q9C0B0 31-174)
# T1 sequence: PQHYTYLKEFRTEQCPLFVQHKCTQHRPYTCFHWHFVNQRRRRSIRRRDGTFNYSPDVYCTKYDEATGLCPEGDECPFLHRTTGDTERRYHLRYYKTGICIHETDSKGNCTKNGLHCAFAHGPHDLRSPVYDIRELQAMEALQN
# Experiment: nsRBNS (natural sequence RNA bind-n-seq); RBNS binding buffer (assumed for nsRBNS): 25 mM Tris pH 7.5, 150 mM KCl, 3 mM MgCl2, 0.01% Triton X-100, 500 ug/ml BSA, 20 U/ml SUPERase-In, 4 C; UNK is unkempt and MSI1 is Musashi-1; names of the RNAs are library labels; protein concentration not given here; high values mean tight binding
row,Binder,binding signal
1,B1,0.825 enrichment R
2,B2,1.33 enrichment R
3,B3,0.682 enrichment R
4,B4,2.55 enrichment R
5,B5,0.823 enrichment R
6,B6,1.38 enrichment R
7,B7,0.782 enrichment R
8,B8,0.738 enrichment R
9,B9,1.04 enrichment R
10,B10,1.95 enrichment R
11,B11,0.448 enrichment R
12,B12,0.835 enrichment R
13,B13,2.18 enrichment R
14,B14,1.05 enrichment R
